Results reported in PubChem BioAssay (NCATS).
Inconclusive means that the source gave no clear call. Such entries were picked first, then a sample of the others. For some of these results: Potencies of inconclusive entries are doubtful fits and often do not repeat. Calls of active or inactive are those of the source. Unless noted, calls follow the shape of the dose curve; as a rule, active = well fitted curve in the direction sought with a large enough effect; inconclusive = small, poorly fitted or top-dose-only effect, or another doubt; inactive = no such curve, though single readings can be large; an effect the other way counts as inactive or inconclusive.

Experiments:
[1] = target: 3',5'-cyclic-AMP phosphodiesterase 4B (Homo sapiens) (UniProt Q07343); test: qHTS Assay for Inhibitors of PDE-IV (AID 607; active = well fitted activation curve with a large enough effect in the main read-out, with a control signal flat, not every such curve was filed as active; inconclusive = small, poorly fitted or top-dose-only effect, or effect the other way, or a change in a side signal; also: potency is read from the fitted curve at half-maximal effect); details: HEK293 ACTOne CNG channel cells, membrane potential fluorescence; activation (PDE inhibition): at 22.9 µM (top of the series)
In short: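 Cell-based read-out of cAMP via a modified cyclic nucleotide-gated channel and membrane potential dye (535/590 nm) in HEK293 cells expressing PDE4 endogenously. Compounds tested up to 22.9 uM final; 100 uM RO 20-1724 reference.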

[2] = target: Dual specificity protein kinase CLK4 (Homo sapiens) (UniProt Q9HAZ1); test: qHTS Assay for Inhibitors of CDC-like Kinase 4 (Kinase-Glo Assay) (AID 1770); also: nearly all actives have a fitted effect of over 65% in size; also: potency is read from the fitted curve at half-maximal effect
In short: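 Inhibition was judged from remaining ATP, measured by Ultra-Glo luciferase bioluminescence after Clk4 (25 nM) had acted on RS peptide at 1 uM ATP for 4.5 hours, room temperature.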

[3] = target: Dual specificity protein kinase CLK4 (Homo sapiens) (UniProt Q9HAZ1); test: qHTS Assay for Inhibitors of CDC-like Kinase 4 (ADP-Glo Assay) (AID 1771); also: potency is read from the fitted curve at half-maximal effect; nearly all actives have a fitted effect of over 70% in size
In short: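 Luminescence from ADP-Glo reports ADP produced by 25 nM Clk4 acting on 100 uM RS repeat peptide with 1 uM ATP over 1 hr at room temperature; residual ATP is depleted before ADP is converted to ATP for detection.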

[4] = target: Dual specificity protein kinase CLK4 (Homo sapiens) (UniProt Q9HAZ1); test: qHTS Assay for Inhibitors of CDC-like Kinase 4 (ADP-FP Assay) (AID 1795); also: potency is read from the fitted curve at half-maximal effect;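 also: recombinant human CLK4 phosphorylating RS repeat peptide at 1 µM ATP; nearly all actives have a fitted effect of over 60% in size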
In short: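 Inhibition of ADP formation by 6.25 nM Clk4 is measured using 1 uM ATP and 100 uM RS repeat peptide over one hour. Produced ADP displaces a fluorescent tracer from antibody, lowering polarization.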

[5] = target: Ubiquitin carboxyl-terminal hydrolase 1 (Homo sapiens) (UniProt O94782); test: Inhibitors of USP1/UAF1: Pilot qHTS (AID 504865);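 also: rhodamine fluorescence freed from ubiquitin-rhodamine substrate followed over time; potency is read from the fitted curve at half-maximal effect; nearly all actives have a fitted effect of over 35% in size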
In short: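 Kinetic fluorescence assay: 1nM USP1/UAF1, 15 min compound preincubation, then 150nM Ub-Rho; 480/540 nm.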

[6] = AP1 Signaling Pathway (AID 357; active = well fitted curve in either direction with a large enough effect, not every such curve was filed as active; inconclusive = small, poorly fitted or top-dose-only effect, or another doubt;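 also: ME-180 reporter cells stimulated with EGF at its EC50 level; top concentration of the series differs between compounds; % is scaled to controls: 0 for no effect and ±100 for the full control effect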); details: ME-180 AP-1-bla reporter, EGF-induced, beta-lactamase ratio, 5 h; at 17.2 µM (top of the series) unless noted
In short: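 A ratiometric CCF4 readout (405 nm excitation; 460 and 530 nm emission) quantified AP-1-driven beta-lactamase in ME-180 cells after 5 h with compound and EC50 EGF; AC50 values were derived for activators and inhibitors.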

[7] = Stat Signaling Pathway (AID 446; active = well fitted curve in either direction with a large enough effect, not every such curve was filed as active; inconclusive = small, poorly fitted or top-dose-only effect, or another doubt;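 also: ME-180 cervical cancer cells given 40 pM IL-6 alongside compound; SIE-controlled beta-lactamase reporter measured as 460/530 nm FRET emission ratio; top concentration of the series differs between compounds; % is scaled to controls: 0 for no effect and ±100 for the full control effect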); details: ME-180 SIE beta-lactamase reporter, IL-6 stimulated, 5 h; at 7.69 µM (top of the series) unless noted
In short: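 Reporter line: ME-180 cervical carcinoma, SIE-beta-lactamase. Treatment: compound with 40 pM IL-6, 5 hrs, 37 C, in low-serum OPTI-MEM with 10 mM HEPES pH 7.3. Detection: 460/530 nm fluorescence.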

[8] = target: Mitogen-activated protein kinase 10 (Mus musculus) (UniProt Q61831); test: JNK3 AlphaScreen Assay (AID 530; active = well fitted curve in either direction with a large enough effect, not every such curve was filed as active; inconclusive = small, poorly fitted or top-dose-only effect, or another doubt;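 also: kinase came from lysate of stimulated human HepG2 cells; signal reports phosphorylation of biotinylated GST-cJun 1-79 at Ser73 with 10 µM ATP; % is scaled to controls: 0 for no effect and ±100 for the full control effect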); details: JNK3 lysate, c-Jun phosphorylation; activity change, negative = inhibition: at 57.1 µM (top of the series)
In short: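 Pre-activated (IL-1β/TNFα) JNK3 in HepG2 lysates phosphorylates biotin-GST-cJun(1-79), 10 uM ATP; anti-phospho-cJun(Ser73) AlphaScreen read at room temperature, pH 7.6 Tris buffer. Compounds pre-incubated 15 min as titrations.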

[9] = target: Cytochrome P450 2C9 (Homo sapiens) (UniProt P11712); test: qHTS Assay for Inhibitors and Substrates of Cytochrome P450 2C9 (AID 883); details: recombinant CYP2C9, luciferin-H luminescence, 60 min; activity change, negative = inhibition: at 57.1 µM (top of the series); also: nearly all actives have a fitted effect of over 60% in size; also: potency is read from the fitted curve at half-maximal effect
In short: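 Signal: luciferase luminescence reporting luciferin produced by CYP2C9. Conditions: 10nM enzyme, Luciferin-H 100uM at KM, 25mM KPO4, 37C, 60 min NADPH-driven reaction. Reference: 57uM sulphaphenazole as 100% inhibition.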

[10] = target: Cytochrome P450 1A2 (Homo sapiens) (UniProt P05177); test: p450-cyp1a2 (AID 410; calls by dose curve; also: potency is read from the fitted curve at half-maximal effect)
In short: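 Luminescent readout of luciferin formed from Luciferin-ME by human CYP1A2; data normalized against complete inhibition by 57 uM furafylline. Enzyme 20nM, substrate 100uM at Km, 100mM KPO4 buffer, 60 min reaction at room temperature.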

[11] = target: Cytochrome P450 2C19 (Homo sapiens) (UniProt P33261); test: qHTS Assay for Inhibitors and Substrates of Cytochrome P450 2C19 (AID 899); also: potency is read from the fitted curve at half-maximal effect; nearly all actives have a fitted effect of over 60% in size
In short: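 Signal comes from luciferase acting on luciferin released by CYP2C19-mediated hydroxylation of Luciferin-H EGE, 10uM (KM). Assay mix: 5nM enzyme, 50mM KPO4; 60 min at 37C with NADPH regeneration. Data normalized against 57uM ketoconazole.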

[12] = qHTS Assay for Identification of Small Molecule Agonists for Hypoxia Response Element Signaling Pathway (AID 914; active = well fitted activation curve with a large enough effect in the signal ratio, with a control signal flat, not every such curve was filed as active; inconclusive = small, poorly fitted or top-dose-only effect, or effect the other way, or a change in a side signal; the % refers to the signal ratio; also: potency is read from the fitted curve at half-maximal effect; as to activation: top concentration of the series differs between compounds; % of control where 0% means no effect); details: ME-180 (cervical carcinoma) HRE-bla reporter, beta-lactamase ratio, CoCl2, 17 h; activation: hits give high values
In short: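 Positive modulation of EC50 CoCl2-induced hypoxia response element signaling is measured in ME-180 cells with a beta-lactamase reporter. Compounds are titrated, incubation runs 17 hours, and %Activity derives from the blue/green ratio.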

[13] = NFAT Signaling Pathway (AID 444; active = well fitted curve in either direction with a large enough effect, not every such curve was filed as active; inconclusive = small, poorly fitted or top-dose-only effect, or another doubt;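 also: carbachol stimulus at about its EC50 of 1 µM final; % is scaled to controls: 0 for no effect and ±100 for the full control effect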); details: Jurkat NFAT-bla M1, carbachol, beta-lactamase ratio, 5 h; at 17.2 µM (top of the series) unless noted
In short: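 Jurkat cells with NFAT-driven β-lactamase reporter and co-expressed M1 receptor, stimulated with carbachol (final 1 uM, ~EC50), compound titration, 5 h at 37 °C. CCF4 loaded 1 h at RT; 460/530 nm ratio gave %activity and AC50.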

[14] = target: Glucocorticoid receptor (Homo sapiens) (UniProt P04150); test: GR-GFP Redistribution (AID 450;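 active = compounds whose dose series gives a full or clear partial fitted curve of increased nuclear translocation; inconclusive = weak partial curve or effect only at the top dose; inactive = no dose-dependent translocation response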; also: potency is read from the fitted curve at half-maximal effect); details: U2OS GR-GFP nuclear translocation, laser cytometry, 2 h
Tags tell the direction and shape of the fitted curve or compound fluorescence and quenching.

Sequence of UniProt O94782 (O94782 whole entry, looked up): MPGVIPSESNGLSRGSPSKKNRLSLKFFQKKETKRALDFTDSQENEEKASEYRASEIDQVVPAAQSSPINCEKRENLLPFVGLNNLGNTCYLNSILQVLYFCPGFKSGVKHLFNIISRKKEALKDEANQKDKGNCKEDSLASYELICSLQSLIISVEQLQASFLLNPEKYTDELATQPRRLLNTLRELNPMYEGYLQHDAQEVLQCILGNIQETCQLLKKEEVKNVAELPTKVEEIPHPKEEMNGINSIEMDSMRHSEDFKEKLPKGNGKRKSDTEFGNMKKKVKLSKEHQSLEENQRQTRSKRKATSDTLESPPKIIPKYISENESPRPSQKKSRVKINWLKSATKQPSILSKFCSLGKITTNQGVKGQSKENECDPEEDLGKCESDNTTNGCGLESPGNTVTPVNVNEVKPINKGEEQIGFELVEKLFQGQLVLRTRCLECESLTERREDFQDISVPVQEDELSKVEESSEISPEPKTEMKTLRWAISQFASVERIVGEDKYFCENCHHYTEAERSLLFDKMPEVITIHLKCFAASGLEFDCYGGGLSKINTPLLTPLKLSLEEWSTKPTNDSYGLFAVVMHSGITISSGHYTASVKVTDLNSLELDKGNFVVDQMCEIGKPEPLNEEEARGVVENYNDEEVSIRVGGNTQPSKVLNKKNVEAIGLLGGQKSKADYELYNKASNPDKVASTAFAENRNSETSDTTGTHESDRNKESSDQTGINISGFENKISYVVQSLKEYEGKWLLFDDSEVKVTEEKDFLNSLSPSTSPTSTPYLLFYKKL
Sequence of UniProt Q9HAZ1 (Q9HAZ1 whole entry, looked up): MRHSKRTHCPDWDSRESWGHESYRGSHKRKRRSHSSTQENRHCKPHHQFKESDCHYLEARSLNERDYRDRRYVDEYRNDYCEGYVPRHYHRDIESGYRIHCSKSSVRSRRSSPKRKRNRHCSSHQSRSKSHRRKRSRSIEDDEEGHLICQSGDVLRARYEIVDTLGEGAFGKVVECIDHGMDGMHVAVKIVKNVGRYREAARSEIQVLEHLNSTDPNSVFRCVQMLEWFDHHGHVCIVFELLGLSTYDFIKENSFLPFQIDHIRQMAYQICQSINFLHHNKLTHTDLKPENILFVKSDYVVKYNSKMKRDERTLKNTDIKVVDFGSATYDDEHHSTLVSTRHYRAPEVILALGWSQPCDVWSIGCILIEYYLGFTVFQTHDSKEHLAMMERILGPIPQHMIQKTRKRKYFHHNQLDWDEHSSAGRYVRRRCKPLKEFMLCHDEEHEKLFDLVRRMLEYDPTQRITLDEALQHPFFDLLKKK
Sequence of UniProt Q07343 (Q07343 whole entry, looked up): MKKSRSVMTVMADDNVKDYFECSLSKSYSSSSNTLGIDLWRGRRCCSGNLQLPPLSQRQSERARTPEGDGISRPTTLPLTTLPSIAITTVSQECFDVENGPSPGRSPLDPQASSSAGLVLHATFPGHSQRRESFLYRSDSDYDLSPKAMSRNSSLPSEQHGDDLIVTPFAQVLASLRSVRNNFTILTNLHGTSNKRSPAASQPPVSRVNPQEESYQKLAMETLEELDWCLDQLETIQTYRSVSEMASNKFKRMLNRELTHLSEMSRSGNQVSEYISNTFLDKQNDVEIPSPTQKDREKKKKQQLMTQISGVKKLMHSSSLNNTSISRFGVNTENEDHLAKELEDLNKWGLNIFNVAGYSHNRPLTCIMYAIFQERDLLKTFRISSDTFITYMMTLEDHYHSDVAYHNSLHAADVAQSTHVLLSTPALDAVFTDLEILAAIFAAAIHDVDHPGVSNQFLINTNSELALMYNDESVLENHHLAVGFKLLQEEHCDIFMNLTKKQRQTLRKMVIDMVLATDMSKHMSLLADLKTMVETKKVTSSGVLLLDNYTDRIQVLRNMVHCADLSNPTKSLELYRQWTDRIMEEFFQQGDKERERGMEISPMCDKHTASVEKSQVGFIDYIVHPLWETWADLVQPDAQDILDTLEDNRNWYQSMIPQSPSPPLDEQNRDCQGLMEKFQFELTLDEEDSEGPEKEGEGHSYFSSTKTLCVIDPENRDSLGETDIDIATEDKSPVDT
Sequence of UniProt P11712 (P11712 whole entry, looked up): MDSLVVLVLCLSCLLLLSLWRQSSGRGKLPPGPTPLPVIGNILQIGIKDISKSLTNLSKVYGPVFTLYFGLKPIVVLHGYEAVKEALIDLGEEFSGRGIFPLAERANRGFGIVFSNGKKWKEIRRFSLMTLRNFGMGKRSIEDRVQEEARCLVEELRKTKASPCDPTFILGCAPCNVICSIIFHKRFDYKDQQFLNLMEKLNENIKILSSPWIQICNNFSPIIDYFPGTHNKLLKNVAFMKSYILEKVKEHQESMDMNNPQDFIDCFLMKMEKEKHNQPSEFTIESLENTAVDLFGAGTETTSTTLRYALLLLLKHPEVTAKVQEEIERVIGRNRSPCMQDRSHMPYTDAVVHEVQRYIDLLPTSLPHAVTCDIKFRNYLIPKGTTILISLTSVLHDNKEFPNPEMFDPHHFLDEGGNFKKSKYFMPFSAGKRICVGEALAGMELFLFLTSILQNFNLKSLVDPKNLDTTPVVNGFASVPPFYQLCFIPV
Sequence of UniProt P05177 (P05177 whole entry, looked up): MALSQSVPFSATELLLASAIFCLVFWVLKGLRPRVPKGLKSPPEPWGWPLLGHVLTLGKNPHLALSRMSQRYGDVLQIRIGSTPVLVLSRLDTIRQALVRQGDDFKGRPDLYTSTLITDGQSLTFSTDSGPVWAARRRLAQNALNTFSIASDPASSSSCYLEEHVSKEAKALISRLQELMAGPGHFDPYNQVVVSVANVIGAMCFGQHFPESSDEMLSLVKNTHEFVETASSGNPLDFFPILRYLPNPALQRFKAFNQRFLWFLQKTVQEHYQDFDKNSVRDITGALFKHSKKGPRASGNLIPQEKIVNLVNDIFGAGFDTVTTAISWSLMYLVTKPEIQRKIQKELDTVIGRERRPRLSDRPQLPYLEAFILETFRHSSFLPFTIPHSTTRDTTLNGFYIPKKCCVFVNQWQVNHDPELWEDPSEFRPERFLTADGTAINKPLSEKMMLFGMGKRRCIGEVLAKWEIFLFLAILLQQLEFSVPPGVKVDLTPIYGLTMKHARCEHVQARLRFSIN
Sequence of UniProt P04150 (P04150 whole entry, looked up): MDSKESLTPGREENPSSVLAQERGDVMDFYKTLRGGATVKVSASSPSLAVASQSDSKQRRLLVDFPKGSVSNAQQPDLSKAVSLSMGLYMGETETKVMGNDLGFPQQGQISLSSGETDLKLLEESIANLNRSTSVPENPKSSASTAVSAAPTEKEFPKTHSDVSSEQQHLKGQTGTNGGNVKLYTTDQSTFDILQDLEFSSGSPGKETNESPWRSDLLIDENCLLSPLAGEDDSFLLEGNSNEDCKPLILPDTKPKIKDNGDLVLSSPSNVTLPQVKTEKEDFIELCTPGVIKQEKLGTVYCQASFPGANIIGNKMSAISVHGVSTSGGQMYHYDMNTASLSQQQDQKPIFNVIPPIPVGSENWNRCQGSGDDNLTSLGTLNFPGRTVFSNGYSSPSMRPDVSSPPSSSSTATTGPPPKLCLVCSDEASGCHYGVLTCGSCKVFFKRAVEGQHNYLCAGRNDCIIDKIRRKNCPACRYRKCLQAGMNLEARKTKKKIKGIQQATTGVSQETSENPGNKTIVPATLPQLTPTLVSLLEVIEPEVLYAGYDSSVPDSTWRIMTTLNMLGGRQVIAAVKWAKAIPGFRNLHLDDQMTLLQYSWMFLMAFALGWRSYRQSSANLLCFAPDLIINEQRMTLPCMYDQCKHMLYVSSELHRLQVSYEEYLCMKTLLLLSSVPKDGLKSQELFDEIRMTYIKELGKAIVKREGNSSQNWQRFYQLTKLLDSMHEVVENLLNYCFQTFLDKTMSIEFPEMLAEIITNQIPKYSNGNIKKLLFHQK
Sequence of UniProt P33261 (P33261 whole entry, looked up): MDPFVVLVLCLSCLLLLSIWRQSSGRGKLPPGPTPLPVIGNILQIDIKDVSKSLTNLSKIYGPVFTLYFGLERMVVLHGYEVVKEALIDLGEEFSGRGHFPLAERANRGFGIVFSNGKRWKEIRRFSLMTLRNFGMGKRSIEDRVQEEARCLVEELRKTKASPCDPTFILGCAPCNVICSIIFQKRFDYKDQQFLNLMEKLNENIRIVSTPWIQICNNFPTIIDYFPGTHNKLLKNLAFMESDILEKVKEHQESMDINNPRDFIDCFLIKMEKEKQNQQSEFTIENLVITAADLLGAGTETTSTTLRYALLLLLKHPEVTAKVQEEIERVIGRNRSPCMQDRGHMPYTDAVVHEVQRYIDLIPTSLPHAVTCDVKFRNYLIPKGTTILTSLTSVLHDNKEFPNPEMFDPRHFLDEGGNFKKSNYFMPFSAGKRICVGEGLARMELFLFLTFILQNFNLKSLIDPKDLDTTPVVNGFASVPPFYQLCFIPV

SMILES: Cc1noc(C)c1-c1nccc(NCc2cccs2)n1
- Potency [1]: inconclusive: 12.6 µM [activator, partial curve]
- Potency [2]: active: 22.4 µM
- Potency [3]: active: 35.5 µM
- Potency [4]: inconclusive: 17.8 µM [falling, single point]
- Potency [5]: inconclusive: 31.6 µM [inhibitor, partial curve, poor fit]

SMILES: Cc1noc(C)c1-c1nccc(N2CCN(C)CC2)n1
- Potency [2]: inactive

SMILES: c1cncc(CNc2ccnc(-c3cccnc3)n2)c1
- Potency [2]: inconclusive: 22.4 µM [falling, single point]
- Potency [3]: inconclusive: 28.2 µM [falling, partial curve]

SMILES: CN(C)Cc1ccccc1-c1cncnc1Nc1ccncc1
- Potency [2]: inconclusive: 28.2 µM [falling, partial curve]
- Potency [3]: inconclusive: 31.6 µM [falling, partial curve]

SMILES: CNc1nc(-c2ccc(C(=O)N(C)C)cc2)nc2ccccc12
- Potency [2]: inconclusive: 17.8 µM [falling, partial curve]
- Potency [3]: active: 28.2 µM
- Potency [4]: inconclusive: 8.91 µM [falling, partial curve]

SMILES: COc1cccc(Nc2ncc3ncc(=O)n(CCc4ccccc4)c3n2)c1
- activity change, negative = inhibition [6]: inconclusive: 51.5% [activator] [at 7.69 µM]
- activity, negative = inhibition [7]: inactive: -3.68%
- Potency [8]: inactive
- Potency [1]: inconclusive: 12.6 µM [activator, single point]
- Potency [9]: inconclusive: 0.794 µM [inhibitor, full curve]
- Potency [2]: active: 0.1 µM
- Potency [3]: active: 0.282 µM
- Potency [4]: inconclusive: 0.0501 µM [falling, full curve]

SMILES: COc1ccc2[nH]cc(CCNc3ncncc3-c3cccc(NS(C)(=O)=O)c3)c2c1
- Potency [10]: active: 12.6 µM
- Potency [2]: active: 25.1 µM
- Potency [3]: active: 35.5 µM
- Potency [4]: active: 10 µM

SMILES: COc1cccc(-c2nc(NCc3cccs3)c3ccccc3n2)c1
- Potency [1]: inconclusive: 12.6 µM [activator, partial curve]
- Potency [11]: active: 3.16 µM
- activation [12]: inconclusive: -24.4%
- Potency [2]: active: 17.8 µM
- Potency [3]: active: 15.8 µM
- Potency [4]: inconclusive: 11.2 µM [falling, partial curve]
- Potency [5]: active: 20 µM

SMILES: CS(=O)(=O)Nc1cccc(-c2ccc3ncnc(NC4CC4)c3c2)c1
- Potency [2]: active: 6.31 µM
- Potency [3]: active: 5.01 µM

SMILES: Cc1ccccc1-c1nc(N(C)C)c2ccccc2n1
- Potency [2]: inconclusive: 28.2 µM [falling, partial curve]
- Potency [3]: inconclusive: 12.6 µM [falling, partial curve]

SMILES: Clc1ccccc1-c1nc(NCc2cccnc2)c2ccccc2n1
- Potency [8]: inactive
- Potency [1]: inconclusive: 10 µM [activator, partial curve]
- Potency [2]: active: 28.2 µM
- Potency [3]: inconclusive: 22.4 µM [falling, partial curve]
- Potency [4]: inconclusive: 20 µM [falling, partial curve, poor fit]
- Potency [5]: active: 20 µM

SMILES: COc1ccccc1-c1nc(NCCN2CCOCC2)c2ccccc2n1
- Potency [2]: inconclusive: 22.4 µM [falling, single point]
- Potency [3]: inconclusive: 31.6 µM [falling, single point]

SMILES: CC(=O)NCCNc1nc(-c2cccnc2)nc2ccccc12
- Potency [2]: active: 25.1 µM
- Potency [3]: active: 14.1 µM

SMILES: COCCn1c(=O)cnc2cnc(N(C)C)nc21
- Potency [2]: inconclusive: 22.4 µM [falling, single point]
- Potency [3]: inconclusive: 31.6 µM [falling, single point]

SMILES: N#Cc1cccc(-c2cncnc2NCCc2cnc[nH]2)c1
- activity change, negative = inhibition [13]: inactive: 4.36% [at 7.69 µM]
- Potency [8]: inactive
- Potency [2]: inconclusive: 28.2 µM [falling, partial curve]
- Potency [3]: inconclusive: 28.2 µM [falling, single point]
- Potency [4]: inactive

SMILES: N#Cc1ccccc1-c1nc(NCCN2CCOCC2)c2ccccc2n1
- Potency [2]: inconclusive: 28.2 µM [falling, single point]
- Potency [3]: inconclusive: 25.1 µM [falling, single point]

SMILES: Fc1ccc(Nc2ccnc(-c3ccoc3)n2)cc1
- Potency [2]: inconclusive: 25.1 µM [falling, partial curve]

SMILES: CN(C)C(=O)c1ccc(-c2ccc3ncnc(N4CCC(C(=O)O)CC4)c3c2)cc1
- Potency [10]: inconclusive: 39.8 µM [decreasing]
- activity change, negative = inhibition [13]: inactive: 7.54% [at 7.69 µM]
- Potency [8]: inactive
- activity change, negative = inhibition [9]: inactive: 37.2% [at 2.29 µM]
- activation [12]: inactive: -0.026%
- Potency [2]: inconclusive: 25.1 µM [falling, single point]
- Potency [3]: inconclusive: 35.5 µM [falling, single point]
- Potency [4]: inactive

SMILES: COc1cccc(-c2cncnc2NCc2cccnc2)c1
- Potency [2]: inconclusive: 28.2 µM [falling, partial curve]
- Potency [3]: inconclusive: 28.2 µM [falling, single point]

SMILES: c1nc(N2CCOCC2)c2cc(-c3ccoc3)ccc2n1
- activity change, negative = inhibition [6]: inconclusive: -30% [inhibitor] [at 7.69 µM]
- Potency [14]: inactive: > 46 µM
- Potency [1]: inconclusive: 12.6 µM [activator, partial curve]
- Potency [12]: inconclusive: 2 µM [inhibitor, partial curve]
- Potency [2]: active: 0.224 µM
- Potency [3]: active: 0.631 µM
- Potency [4]: active: 0.178 µM
